According to PubChem BioAssay AID588342 (National Center for Advancing Translational Sciences (NCATS), 2011):
In all, about 360,000 compounds went through this assay and about 25,000 (6.9%) were called active. Inconclusive means that the source gave no clear call. Such entries were picked first, then a sample of the others. Calls come from the whole dose curve; as a rule, active = well fitted inhibition curve with a large enough effect; inconclusive = small, poorly fitted or top-dose-only effect; inactive = flat fitted curve, though single readings scatter. Where the call is inconclusive, the potency comes from a doubtful curve fit.

target: Luciferin 4-monooxygenase (Photinus pyralis) (UniProt P08659); test: qHTS profiling assay for firefly luciferase inhibitor/activator using purifed enzyme and Km concentrations of substrates (counterscreen for miR-21 project); details: purified FLuc, luminescence inhibition; activity change, negative = inhibition: at 57.5 µM (top of the series); note: nearly all actives have a fitted effect of over 55% in size;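 for activity change, negative = inhibition: plate controls were vehicle for no effect and reference inhibitor for full effect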
Chain of UniProt P08659 (P08659 whole entry, looked up): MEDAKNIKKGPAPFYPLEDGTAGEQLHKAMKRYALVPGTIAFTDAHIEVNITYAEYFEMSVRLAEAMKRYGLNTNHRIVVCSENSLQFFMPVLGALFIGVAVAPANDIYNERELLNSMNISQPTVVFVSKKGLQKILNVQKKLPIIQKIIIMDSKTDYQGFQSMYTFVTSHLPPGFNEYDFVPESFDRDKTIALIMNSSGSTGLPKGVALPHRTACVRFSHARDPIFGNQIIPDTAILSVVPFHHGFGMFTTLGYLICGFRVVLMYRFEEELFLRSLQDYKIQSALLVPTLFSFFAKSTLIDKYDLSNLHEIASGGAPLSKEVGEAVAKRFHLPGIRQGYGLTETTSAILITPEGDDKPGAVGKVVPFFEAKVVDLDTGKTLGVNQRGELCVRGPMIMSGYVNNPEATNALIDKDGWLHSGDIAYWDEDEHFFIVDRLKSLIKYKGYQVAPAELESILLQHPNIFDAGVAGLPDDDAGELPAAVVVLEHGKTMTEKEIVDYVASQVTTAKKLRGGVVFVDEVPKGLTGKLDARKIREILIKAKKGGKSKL
Procedure, shortened: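 Biochemical qHTS of compounds, final roughly 60 µM downward over six points, against 10 nM purified firefly luciferase using Km concentrations of substrates (10 uM D-luciferin, 10 uM ATP) in Tris acetate pH 7.5 buffer; luminescence output.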
Potency is the fitted concentration of half-maximal effect; tags give direction and shape of the fitted curve.

SMILES	Potency	activity change, negative = inhibition
CCOC(=O)c1nc2ccccc2s1	active: 13.5 µM	
O=C(c1ccccc1)n1ccc(-c2cnc(-c3ccccc3)s2)n1	active: 4.26 µM	
Cc1ccc(-c2nc3cc(C(C)C)ccc3o2)cc1NC(=O)c1cc2ccccc2o1	active: 2.39 µM	
COc1ccccc1C(=O)NN1C(=O)/C(=C/c2cccn2C)SC1=S	inconclusive: 15.1 µM [inhibitor, partial curve, poor fit]	
CC1CCCCN1C(=S)NCCc1ccccc1 (configuration not stated)	inconclusive: 16.9 µM [inhibitor, partial curve]	
CCOC(=O)N1CCN(C(=O)/C=C/c2ccc(OC)cc2)CC1	inconclusive: 21.3 µM [inhibitor, partial curve, poor fit]	
CC1CCN(C(=O)COC(=O)c2ccccc2NC(=O)c2ccco2)CC1	inconclusive: 23.9 µM [inhibitor, single point]	
Cc1ccc(OCC(=O)Nc2ccc(S(=O)(=O)Nc3cc(C)nc(C)n3)cc2)c(Br)c1	inconclusive: 10.7 µM [inhibitor, partial curve]	
CCOC(=O)c1cc(-c2ccccc2C)nn1Cc1cc(CC)no1	active: 16.9 µM	
Cc1cc(C(=O)CN2C(=O)c3ccccc3C2=O)c(C)n1Cc1cccs1	active: 0.849 µM	
COc1ccc(NC(=O)COC(=O)c2ccccc2SCC(=O)N2CCCC2)cc1	inconclusive: 26.9 µM [inhibitor, single point]	
c1cnc(SCCCOc2ccc3ccccc3c2)nc1	active: 16.9 µM	
COc1ccc(CCNS(=O)(=O)c2ccc(Br)s2)cc1	inconclusive: 26.9 µM [inhibitor, single point]	
CCN(c1ccccc1)S(=O)(=O)c1ccc(C(=O)Nc2nnc(-c3ccco3)o2)cc1	inconclusive: 21.3 µM [inhibitor, single point]	
CCOc1ccc(C(=O)CSCC(=O)O)cc1	inconclusive: 37.9 µM [inhibitor, partial curve, poor fit]	
Cc1ccccc1-n1c(SCC(=O)Nc2ccc(Cl)cc2F)nnc1-c1cc2occc2n1C		inactive: 5.98%
CCN1C(=O)/C(=C2/Sc3ccccc3N2CCCS(=O)(=O)O)SC1=S	inconclusive: 37.9 µM [inhibitor, partial curve, poor fit]	
O=c1oc(CCCO)cc2ccc(C#Cc3ccsc3)cc12	inconclusive: 10.7 µM [inhibitor, single point]	
Cc1cc(C)c(Cn2c3ccccc3c3cnn(CC(=O)NC4CCC(C)CC4)c(=O)c32)c(C)c1 (configuration not stated)		inactive: -4.96%
O=C(O)c1cc(NC2(c3ccccc3)C(=O)c3ccccc3C2=O)ccc1Cl	inconclusive: 12 µM [inhibitor, partial curve]	
O=C1NC2(CCCCC2)C(=O)N1CCS(=O)(=O)Oc1ccc(Br)cc1		inactive: -5.12%
O=C(Nc1ccc(NC(=O)C2CC2)cc1)c1ccco1	active: 19 µM	
C=CCSc1nsc(NC(=O)Nc2cccc(C(C)=O)c2)n1	active: 15.1 µM	
O=C(Nc1nccs1)c1cc2cc(Cl)ccc2oc1=O		inactive: -5.25%

SMILES	Potency	activity change, negative = inhibition
CCc1cc(=O)oc2cc(OCC(=O)N3CCC(C(=O)O)CC3)ccc12		inactive: 0.468%
Cc1ccccc1NC(=O)c1ccc(F)c(S(=O)(=O)N(C)Cc2ccccc2)c1		inactive: -9.57%
CCc1ccc(NC(=O)c2cc(C(C)=O)n3ccccc23)cc1	active: 15.1 µM	
CC(C)c1ccc(C2N3CC4(C)CN2CC(c2ccccc2)(C3)C4=O)cc1 (configuration not stated)		inactive: -10.9%
COCCn1c(C)cc(C(=O)CSc2nnc(-c3cccnc3)n2-c2ccccc2F)c1C	inconclusive: 26.9 µM [inhibitor, partial curve, poor fit]	
CN(C)c1ccc(/C=N/Nc2cc(N3CCOCC3)nc(N3CCOCC3)n2)cc1	inconclusive: 23.9 µM [inhibitor, partial curve, poor fit]	
CCOC(=O)c1scc(-c2ccccc2)c1S(=O)(=O)Nc1ccccc1F	inconclusive: 21.3 µM [inhibitor, partial curve, poor fit]	
C/C(=N/Nc1ccc(C(=O)O)cc1)c1ccc(O)c(O)c1O	inconclusive: 21.3 µM [inhibitor, single point]	
COc1ccccc1C(=O)NC(=S)N1CCCc2ccccc21	active: 21.3 µM	
CCCCC(=O)Nc1nnc(S(=O)(=O)N(CC)c2ccccc2)s1		inactive: 0.181%
Cc1ccc(OCC(=O)NN2C(=O)c3ccccc3C2=O)c(C)c1	inconclusive: 37.9 µM [inhibitor, partial curve, poor fit]	
Cc1ccccc1OCC(=O)Nc1ccncc1	inconclusive: 16.9 µM [inhibitor, partial curve, poor fit]	
CC(=O)c1cc(O)c2ccccc2c1O	inconclusive: 15.1 µM [inhibitor, partial curve]	
Cc1ccc2[nH]c(=O)c3cc(C(=O)N4CCN(c5ccccc5)CC4)sc3c2c1		inactive: 0.889%
COc1cc(/C=C2/C(=O)ON=C2C)ccc1OCc1cccc(F)c1	inconclusive: 2.69 µM [inhibitor, full curve]	
O=[N+]([O-])c1ccc(-c2nc(-c3ccncc3)no2)cc1	inconclusive: 16.9 µM [inhibitor, partial curve]	
CCCCNC(=O)N(C)c1nc2ccccc2s1	active: 13.5 µM	
Cc1nc(C)c(-c2csc(Nc3ccc(F)cc3)n2)s1	inconclusive: 26.9 µM [inhibitor, single point]	
S=c1[nH]nc(-c2c[nH]c3ccccc23)o1	inconclusive: 37.9 µM [inhibitor, partial curve, poor fit]	
CN1CCN(C(CNC(=O)C(=O)Nc2ccccc2)c2ccc3c(c2)OCO3)CC1 (configuration not stated)		inactive: -1.02%
COc1ccc2c(CCNC(N)=S)c[nH]c2c1	inconclusive: 42.6 µM [inhibitor, partial curve, poor fit]	
CCN1CCN(C(=O)c2nn(-c3ccc(C)cc3)c(=O)c3c2c2ccccc2n3C)CC1		inactive: 3.79%
CCOC(=O)c1c(C)n(-c2ccccc2)c2ccc(OC(=O)c3ccccc3)cc12		inactive: -8.46%
O=C(N/N=C/c1cccc(F)c1)NC1CCCCC1	inconclusive: 26.9 µM [inhibitor, partial curve, poor fit]	

SMILES	Potency	activity change, negative = inhibition
CCc1cccc(C)c1NC(=O)C1CCCN1C(=O)NCc1ccccc1 (configuration not stated)		inactive: 1.36%
Cc1nc(N2C(=O)c3oc4ccccc4c(=O)c3C2c2ccccc2F)sc1C (configuration not stated)		inactive: 0.198%
COc1cccc(N2CCN(S(=O)(=O)c3cc(Br)cc4c3N(C(=O)C3CC3)CC4)CC2)c1		inactive: 0.1%
COc1ccc(-c2cc(C(=O)NCc3cc(OC)c(OC)c(OC)c3)[nH]n2)cc1	inconclusive: 30.1 µM [inhibitor, single point]	
CCCN1C(=O)/C(=N\OCC(=O)NCC(F)(F)F)c2ccccc21		inactive: -1.38%
CC(C)C(=O)Nc1ccc(NC(=O)c2ccc3c(c2)OCO3)cc1		inactive: -5.4%
Cc1ccc(Cl)c2c1N[C@@H](c1ccc(C(=O)O)cc1)[C@H]1CC=C[C@@H]21	inconclusive: 10.7 µM [inhibitor, partial curve]	
COc1ccc(OC)c(C(=O)CSc2nnc(Cc3cccs3)n2CCc2ccccc2)c1		inactive: -0.997%
CC1CCCC(NC(=O)C2CCCN2S(=O)(=O)c2cccc3nsnc23)C1C (configuration not stated)		inactive: 1.67%
Cc1cccc(SCC(=O)Nc2ccc3c(c2)OCCO3)c1	inconclusive: 2.69 µM [inhibitor, partial curve]	
CCN(CC)C(=O)c1sc(NC(=O)c2ccc(C)c([N+](=O)[O-])c2)c(C#N)c1C	inconclusive: 21.3 µM [inhibitor, partial curve, poor fit]	
CCOc1ccc(-c2nc(CSCC(=O)N3CCN(c4cccc(C(F)(F)F)c4)CC3)c(C)o2)cc1		inactive: -2.55%
CCc1nnc(NS(=O)(=O)c2ccc(NC(=O)c3cc(Cl)ccc3Cl)cc2)s1	inconclusive: 37.9 µM [inhibitor, partial curve, poor fit]	
CC(C)(C)c1ccc(C(=O)N/C(N)=N/c2nc3ccccc3o2)cc1	inconclusive: 26.9 µM [inhibitor, partial curve, poor fit]	
COc1cccc(N2CCN(C(=O)c3ccc4c(=O)n(CCc5ccccc5)c(=O)[nH]c4c3)CC2)c1		inactive: -1.64%
Cc1ccc(-c2nn(-c3ccccc3)cc2C(=O)Nc2ccc(C)c(S(=O)(=O)N3CCOCC3)c2)cc1	inconclusive: 10.7 µM [inhibitor, partial curve]	
COC(=O)Cn1c(O)c(N=NC(=O)c2ccc3c(c2)OCO3)c2ccccc21	active: 0.953 µM	
CC(C)COC(=O)/C(C#N)=C\c1ccc(-c2ccccc2Cl)o1	inconclusive: 10.7 µM [inhibitor, partial curve, poor fit]	
Cc1cc(C)nc(SCc2nnc(SCC(=O)Nc3nc(-c4ccccc4)cs3)n2C)n1	inconclusive: 37.9 µM [inhibitor, partial curve, poor fit]	
COc1ccc(C)cc1NC(=O)Nc1cccc(C(=O)O)c1	inconclusive: 26.9 µM [inhibitor, partial curve, poor fit]	
CCOCCc1nn2c(=O)cc(COC(=O)CNC(=O)c3ccc(C(C)(C)C)cc3)nc2s1	inconclusive: 23.9 µM [inhibitor, partial curve, poor fit]	
CCOc1cc(/C=N\NC(=O)OC)ccc1OC(=O)c1ccco1		inactive: 7.41%
Cc1c(C(=O)N2CCCCC2C)sc2ncnc(N3CCc4ccccc4C3)c12 (configuration not stated)	inconclusive: 37.9 µM [inhibitor, partial curve, poor fit]	
Cc1nn2c(c1-c1ccccc1)N=C(c1ccco1)CC2c1ccccc1 (configuration not stated)	inconclusive: 37.9 µM [inhibitor, partial curve, poor fit]	
